Assay results as given in PubChem BioAssay AID1963576 (National Center for Advancing Translational Sciences (NCATS), 2024).
Screen size: about 46,000 compounds; about 60 (0.1%) were called active. Inconclusive results (about 3%) are left out. Calls come from the whole dose curve; as a rule, active = well fitted inhibition curve with a large enough effect; inconclusive = small, poorly fitted or top-dose-only effect; inactive = no such curve, though single readings can be large or run the other way. The list shows a part of the results.

Assay: Primary qHTS assay for Inhibitors of ovarian cancer metastasis using an organotypic tumor microenvironment (TME) model.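 For activity change, negative = inhibition: plate controls were DMSO wells for no effect and tomatine positive control wells for full effect.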 Note: nearly all actives have a fitted effect of over 65% in size.
Conditions: SKOV3ip1-GFP adhesion/invasion on 3D omental model, fluorescence; series mostly up to 45.8 µM; activity change, negative = inhibition: at the top concentration
Outline: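 A 3D layer of primary human omental fibroblasts, mesothelial cells, fibronectin and collagen I, grown 48 hr, received SKOV3ip1-GFP cells in serum-free medium plus compounds at 0.36-46 umol/L. After 2 hr RT and 16 hr 37 C, fixed adherent GFP cells were counted; normalized to DMSO and tomatine.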

Activity change, negative = inhibition, inactive:
Cc1cccc(-c2nc(N3CCN(c4ccc(F)cc4)CC3)c3ccccc3n2)c1 -1.88%, CCOC(=O)c1cccc(NC(=O)c2cc3c(=O)n(Cc4cccnc4)ccc3nc2C)c1 3.41%, COc1ccc(Nc2nc3c(S(=O)(=O)c4ccccc4)nnn3c3ccc(Cl)cc23)cc1OC -2.93%, CCCOc1ccc(NC(=O)CC2C(=O)N(c3cccc(C)c3)C(=O)N2CCc2ccncc2)cc1 (stereo unspecified) 12.3%, CCOc1ccc(-c2cc(C(=O)NCc3ccc(OC)cc3)c3c(-c4ccc(F)cc4)[nH]nc3n2)cc1 8.39%, CCN1CCN(CCCNC(=O)c2cnn(-c3ccc(C)cc3)c2C2CCN(C(=O)OC(C)(C)C)CC2)CC1 -6.6%, Cc1ccc(NC(=O)c2cc(-c3cccs3)on2)cc1C 3.37%, Cc1ccc(-n2ncc3c(NCCCn4ccnc4)ncnc32)cc1 -0.296%, COCCCCC(=NOCCN)c1ccc(C(F)(F)F)cc1 -17.2%, c1csc(-c2nc3ccccn3c2Nc2ccc3c(c2)OCCO3)c1 -2.73%, COc1cccc(-n2c(SCC(=O)Nc3ccc(F)cc3F)nc3c([nH]c4ccccc43)c2=O)c1 -0.328%, COc1nccc(-c2c(-c3ccc(F)cc3)ncn2C2CCC(O)CC2)n1 (stereo unspecified) 8.26%, COc1ccc(S(=O)(=O)NCCS(=O)(=O)N2CCN(c3ccccc3F)CC2)cc1 -6.14%, Oc1c(C(c2ccc(Cl)cc2)N2CCCC2)sc2nc(-c3ccco3)nn12 (stereo unspecified) -2.16%, CCOc1ccccc1C(=O)NCC(c1ccc(N(C)C)cc1)N1CCc2ccccc21 (stereo unspecified) 24.9%, COC(=O)c1c(-c2ccc(Cl)cc2)noc1N1CCN(c2cccc(OC)c2)CC1 -23.2%, COc1ccc(CCNC(=O)c2ccc(Cn3c(=O)c4ccccc4n(Cc4ccccc4Cl)c3=O)cc2)cc1OC -28.3%, Cc1nnc(N2C(=O)c3oc4ccccc4c(=O)c3C2c2ccc(F)cc2)s1 (stereo unspecified) 10.2%, CCOc1cc(-c2ccc(OC(=O)c3ccc(Cl)cc3)c(OC)c2)cc(=O)c2c(C)oc(C)c12 -5.45%, CC(=O)c1ccc(N2CCN(c3ncnc4onc(-c5ccc(Cl)cc5)c34)CC2)cc1 9.22%, CCCCOC(=O)c1ccc(NC(=O)CSc2nc3c(c(=O)[nH]2)CCC3)cc1 8.44%, COc1cc(-c2nc3cccc(C)n3c2Nc2ccc3c(c2)OCCO3)ccc1O 1.19%

outcome, inactive:
CCCCCn1c(=O)[nH]c2cc(C(=O)N3CCN(c4ccccc4F)CC3)ccc2c1=O, CCOC(=O)c1[nH]c2ccccc2c1NC(=O)c1ccc(OCC)cc1, Cc1c(C(=O)NCc2ccc(F)cc2)sc2nc(-c3ccccc3)cn12, COc1ccccc1CNC(=O)c1cccc(NC(=O)N2CCSc3ncccc32)c1
